This passage reports cell count results from the supplement of paper PMC12462457.

Structures can show the parent of a compound that is named as a salt. ± gives the standard deviation of the averaged measurements. This is one part of the list.

The assay has as its system OVCAR8. The assay is described as follows: cell count relative to DMSO vehicle (fold change); OVCAR8 is a high-grade serous ovarian cancer line and CX-5461 an RNA polymerase I inhibitor; higher = more surviving senescent cells (less killing). The conditions noted are these: senescence inducer: CX-5461 3 µM 48 h, then 6 d recovery (CX senescent), exposure time 24 h.

With `CC(C)c1cc2c(cc1S(=O)(=O)O)[C@@]1(C)CCC[C@@](C)(C(=O)O)[C@@H]1CC2` [Ecabet (sodium)], the cell count came out at 1.06 ± 0.12 (compound dose 1 µM) and 1.01 ± 0.073 (compound dose 5 µM).

Turning to `Nc1nc2[nH]cnc2c(=S)[nH]1`, the cell count was found to be 1.109 ± 0.011 (compound dose 1 µM) and 1.1 ± 0.059 (compound dose 5 µM).

For the compound `O=C(/C=C/c1ccc(O)c(O)c1)O[C@@H]1[C@H](O)C[C@@](O)(C(=O)O)C[C@H]1OC(=O)/C=C/c1ccc(O)c(O)c1` (stereo in doubt) [3,4-Dicaffeoylquinic acid], the cell count by setting is: (compound dose 1 µM) 1.16 ± 0.19; (compound dose 5 µM) 1.1 ± 0.13.

For `CC(NC(=O)C(Cc1ccccc1)NC(=O)OCc1ccccc1)C(=O)CF` (stereo unspecified), the cell count (compound dose 1 µM) was found to be 1.11 ± 0.041 and the cell count (compound dose 5 µM) is 1.13 ± 0.15.

`C=CCc1cccc(/C=N/NC(=O)CN2CCN(Cc3ccccc3)CC2)c1O` yielded a cell count (compound dose 1 µM) of 1.1 ± 0.081 and a cell count (compound dose 5 µM) of 1.19 ± 0.12.

Take `Cc1cc(C)c(-c2n[nH]c(C)c2C)cc1C(=O)N1CC(c2ccc(C#N)cc2)C1`: the cell count is, setting by setting: (compound dose 1 µM) 1.02 ± 0.1; (compound dose 5 µM) 1.09 ± 0.11.

Regarding `CC(C(=O)O)c1ccc(-c2ccccc2)c(F)c1` (stereo unspecified), the cell count is 0.928 ± 0.18 (compound dose 1 µM) and 1.11 ± 0.28 (compound dose 5 µM).

Compound `COc1cc2c(N3CCN(C(=O)Nc4ccc(OC(C)C)cc4)CC3)ncnc2cc1OCCCN1CCCCC1` [Tandutinib] gave a cell count (compound dose 1 µM) of 1.05 ± 0.12 and a cell count (compound dose 5 µM) of 1.01 ± 0.15.

On to `Oc1cc(O)c2c(c1)O[C@H](c1ccc(O)c(O)c1)[C@H](O)C2` [(-)-Epicatechin], for which the cell count (compound dose 1 µM) was determined as 1.06 ± 0.12 and the cell count (compound dose 5 µM) came to 1.1 ± 0.2.

In turn, `CC(C)C[C@H](NC(=O)[C@@H](NC(=O)c1cccc(-c2ccccc2)n1)[C@@H](C)O)B(O)O` [Delanzomib] registered a cell count (compound dose 1 µM) of 1.18 ± 0.29 and a cell count (compound dose 5 µM) of 1.34 ± 0.12.

The compound `CNC(=O)c1cc(Oc2ccc(NC(=O)Nc3cc(C(C)(C)C)nn3-c3ccc4ncccc4c3)c(F)c2)ccn1` [Rebastinib (DCC-2036)] registered a cell count (compound dose 1 µM) of 1.34 ± 0.19 and a cell count (compound dose 5 µM) of 1.25 ± 0.22.

Regarding `COc1cc(/C=C/c2ccc(NC(=O)/C=C/c3cc(OC)c(OC)c(OC)c3)cc2)cc(OC)c1`, the cell count reads like this: (compound dose 1 µM) 1.19 ± 0.22; (compound dose 5 µM) 1.097 ± 0.0035.

Compound `CC(C)=CCc1c(O)ccc(C(=O)/C=C/c2ccc(O)cc2)c1O` [Isobavachalcone] returned a cell count (compound dose 1 µM) of 1.09 ± 0.018 and a cell count (compound dose 5 µM) of 1.04 ± 0.073.

Compound `COc1ccc(-c2cc(=O)c3c(O)c(OC)c(O[C@@H]4O[C@H](CO[C@@H]5O[C@@H](C)[C@H](O)[C@@H](O)[C@H]5O)[C@@H](O)[C@H](O)[C@H]4O)cc3o2)cc1` had a cell count (compound dose 1 µM) of 1.15 ± 0.19 and a cell count (compound dose 5 µM) of 1.06 ± 0.12.

For `O=C1N=C(N2CCN(CCO)CC2)S/C1=C\c1ccc(-c2ccccc2)cc1`, the cell count by setting is: (compound dose 1 µM) 0.992 ± 0.16; (compound dose 5 µM) 1.19 ± 0.17.

`CC1(C)C=Cc2cc(CCn3c4ccccc4c4ccccc43)cc(C=O)c2O1` had a cell count (compound dose 1 µM) of 1.1 ± 0.033 and a cell count (compound dose 5 µM) of 1.04 ± 0.17.

With `COc1cc2c(=O)c(-c3ccc(O)cc3)coc2cc1O` [Glycitein], the cell count runs as follows: (compound dose 1 µM) 0.554 ± 0.0078; (compound dose 5 µM) 0.59 ± 0.016.

Take `C/C=C1\C(=O)C[C@H]2[C@@H]3CCC4=CC(=O)CC[C@]4(C)[C@H]3CC[C@]12C` [Guggulsterone]: the cell count (compound dose 1 µM) stood at 1.26 ± 0.21 and the cell count (compound dose 5 µM) was 1.08 ± 0.12.

Take `Nc1ccn([C@@H]2C(F)=C(CO)[C@@H](O)[C@H]2O)c(=O)n1`: the cell count was 1.15 ± 0.19 (compound dose 1 µM) and 1.15 ± 0.19 (compound dose 5 µM).

For `CCC[C@H](C)Oc1nc(N)c2[nH]c(=O)n(CCCCCN3CCCCC3)c2n1`, the cell count by setting is: (compound dose 1 µM) 1.16 ± 0.23; (compound dose 5 µM) 1.11 ± 0.26.

For the compound `NC(=O)c1cccc2cn(-c3ccc([C@@H]4CCCNC4)cc3)nc12` [Niraparib (MK-4827) tosylate], the cell count is 1.1115 ± 0.00071 (compound dose 1 µM) and 0.848 ± 0.054 (compound dose 5 µM).

For `NC(=O)c1cccc2cn(-c3ccc([C@@H]4CCCNC4)cc3)nc12` [Niraparib], the cell count runs as follows: (compound dose 1 µM) 1.04 ± 0.17; (compound dose 5 µM) 1.15 ± 0.083.

For `CO[C@@H]1[C@H](N(C)C(=O)c2ccccc2)C[C@H]2O[C@]1(C)n1c3ccccc3c3c4c(c5c6ccccc6n2c5c31)C(=O)NC4` [Midostaurin], the cell count runs as follows: (compound dose 1 µM) 0.733 ± 0.0085; (compound dose 5 µM) 0.652 ± 0.14.

On to `CC[C@H](C)[C@H](NC(=O)OCc1ccccc1)C(=O)N[C@H](C=O)CC(C)C` [Z-Ile-Leu-aldehyde], for which the cell count is 1.15 ± 0.11 (compound dose 1 µM) and 1.1 ± 0.042 (compound dose 5 µM).

The compound `CNC(=O)c1cccc(-c2ccc3c(N4CCOC[C@@H]4C)nc(N4CCOC[C@@H]4C)nc3n2)c1` [Vistusertib] came in with a cell count (compound dose 1 µM) of 1.18 ± 0.34 and a cell count (compound dose 5 µM) of 1.1 ± 0.27.

Consider `CCc1cc(Nc2nccc(-c3c(-c4ccc(OC)c(C(=O)Nc5c(F)cccc5F)c4)nc4ccccn34)n2)c(OC)cc1N1CCC(N2CCN(S(C)(=O)=O)CC2)CC1`, for which the cell count (compound dose 1 µM) came to 1 ± 0.017 and the cell count (compound dose 5 µM) came out at 0.697 ± 0.11.

On to `COCCOc1cnc2ccn([C@H](C)c3nnc4c(F)cc(-c5cnn(C)c5)cn34)c(=O)c2c1`, for which the cell count came out at 0.93 ± 0.031 (compound dose 1 µM) and 0.9455 ± 0.005 (compound dose 5 µM).

Compound `Cc1cc(-c2ncc(-c3cccnc3)cc2/C=C/c2ccccc2)cnc1-c1cccnc1` [Pyridoclax] had a cell count (compound dose 1 µM) of 1.14 ± 0.14 and a cell count (compound dose 5 µM) of 0.75 ± 0.18.

In turn, `O=C1[C@H](Cc2ccc(O)cc2)N2C(=O)CCN(C(=O)NCc3ccccc3)[C@H]2CN1Cc1cccc2ccccc12` gave a cell count (compound dose 1 µM) of 1.09 ± 0.11 and a cell count (compound dose 5 µM) of 1.13 ± 0.19.

Turning to `COc1ccc(-c2oc3cc(O)cc(O)c3c(=O)c2O)cc1` [Kaempferide], the cell count was 0.974 ± 0.034 (compound dose 1 µM) and 1.07 ± 0.18 (compound dose 5 µM).

For `C[C@@H]1O[C@@H](O[C@H]2[C@H](O[C@H]3CC[C@]4(C)[C@H]5CC=C6[C@@H]7CC(C)(C)CC[C@]7(C(=O)O)CC[C@@]6(C)[C@]5(C)CC[C@H]4C3(C)C)OC[C@H](O[C@@H]3O[C@H](CO)[C@@H](O)[C@H](O)[C@H]3O)[C@@H]2O)[C@H](O)[C@H](O)[C@H]1O` [Hederacolchiside A1], the cell count reads like this: (compound dose 1 µM) 1.073 ± 0.0035; (compound dose 5 µM) 0.006 ± 0.0085.

In the case of `COC(=O)Nc1nc2cc(C(=O)c3ccccc3)ccc2[nH]1` [Mebendazole], the cell count (compound dose 1 µM) came to 1.17 ± 0.15 and the cell count (compound dose 5 µM) is 1.18 ± 0.19.

The compound `CC1C(=O)OC2C(O)C34C5CC(C(C)(C)C)C36C(OC(=O)C6O)OC4(C(=O)O5)C12O` (stereo unspecified) [Ginkgolide B] had a cell count (compound dose 1 µM) of 1.1 ± 0.081 and a cell count (compound dose 5 µM) of 0.958 ± 0.11.
